# Test results taken from PubChem BioAssay AID1159614 (National Center for Advancing Translational Sciences (NCATS), 2016).
# The whole screen tested about 45,000 compounds, of which about 65 (0.1%) were called active. Calls follow the shape of the dose curve; as a rule, active = well fitted activation curve with a large enough effect; inconclusive = small, poorly fitted or top-dose-only effect; inactive = no such curve, though single readings can be large or run the other way. Some of the results follow.
# Target: Galactocerebrosidase (Homo sapiens) (UniProt P54803)
# Assay: A Novel Cell-Based Assay to Identify Small Molecules for B -Galactocerebrosidase; also: 0% is about no effect; nearly all actives have a fitted effect of over 65% in size
# Details: 145M-Twi-hGALC-G270D cells (Twitcher mouse brain line with human GALC G270D), HMU-beta-Gal fluorescence, 48 h; series mostly up to 57.5 µM; activation: at the top concentration
# In short: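 Brain-derived Twitcher mouse 145M-Twi cells stably expressing human GALC-G270D or wild-type GALC, treated live, then residual GALC activity read by fluorescence of HMU-b-Gal substrate (0.1 mM final) in citrate-phosphate buffer pH 5.2 with sodium taurocholate. Signal increase indicates enhancement.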
# Chain of UniProt P54803 (P54803 whole entry, looked up): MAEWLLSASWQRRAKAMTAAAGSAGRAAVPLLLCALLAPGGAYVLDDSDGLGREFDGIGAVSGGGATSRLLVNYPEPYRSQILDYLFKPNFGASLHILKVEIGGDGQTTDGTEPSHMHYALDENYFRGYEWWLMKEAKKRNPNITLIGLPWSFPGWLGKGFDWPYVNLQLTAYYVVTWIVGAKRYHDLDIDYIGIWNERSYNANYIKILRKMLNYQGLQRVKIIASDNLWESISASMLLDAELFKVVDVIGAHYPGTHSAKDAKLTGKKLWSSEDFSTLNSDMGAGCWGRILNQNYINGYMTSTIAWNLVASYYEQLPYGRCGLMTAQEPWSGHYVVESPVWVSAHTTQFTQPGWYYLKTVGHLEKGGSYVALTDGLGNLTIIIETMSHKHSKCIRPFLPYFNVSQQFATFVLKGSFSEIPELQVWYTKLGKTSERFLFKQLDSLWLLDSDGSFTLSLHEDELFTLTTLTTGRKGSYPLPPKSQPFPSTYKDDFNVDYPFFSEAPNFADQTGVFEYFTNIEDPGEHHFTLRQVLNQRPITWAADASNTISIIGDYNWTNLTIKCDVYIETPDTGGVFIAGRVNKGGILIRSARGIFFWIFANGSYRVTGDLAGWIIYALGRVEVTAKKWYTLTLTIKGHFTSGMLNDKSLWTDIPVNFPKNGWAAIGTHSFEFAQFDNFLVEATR
row,Structure (SMILES),activation
1,COc1ccc2c(c1)CCc1c(C(=O)Nc3c(C)nn(Cc4ccccc4C)c3C)noc1-2,inactive: -6.81%
2,Cc1ccsc1C(=CCCN1CCC[C@@H](C(=O)O)C1)c1sccc1C,inactive: -15.9%
3,CNS(=O)(=O)c1cn(CC(=O)N2CCN(c3cccc(C)c3C)CC2)cc1S(=O)(=O)NC,inactive: -8.7%
4,O=c1cc(-c2ccccc2)nc(SCc2nc(-c3ccc(Cl)cc3)no2)[nH]1,inactive: -6.6%
5,Cc1ccc(S(=O)(=O)N(Cc2nc(-c3cccc(C)c3)no2)C2CCCCC2)cc1,inactive: -5.37%
6,O=C(COCc1cc(-c2ccc3c(c2)OCO3)on1)N1CCN(c2cccc(Cl)c2)CC1,inactive: -17.2%
7,CCN1CCN(C(=O)c2cnn(-c3cccc(Cl)c3)c2C2CCN(C(=O)OC(C)(C)C)CC2)CC1,inactive: -27.2%
8,CCc1nonc1NC(=O)c1oc2ccc(C)cc2c1C,inactive: -24.8%
9,COc1ccc(-c2cc(-c3ccc4c(c3)NC(=O)CO4)nc3c2COc2ccc(F)cc2-3)cc1,inactive: -15%
10,CCOC(=O)c1ccc(-n2c(-c3ccc(C)cc3)c(C)n3c4c(=O)n(C)c(=O)n(C)c4nc23)cc1,inactive: -11%
11,CCOc1ccc(N2C(=O)c3n[nH]c(-c4cccs4)c3C2c2cccc(F)c2)cc1 (stereo unspecified),inactive: -11.4%
12,Cc1ccc(Cl)cc1-n1ncc2c(NCCCc3ccccc3)ncnc21,inactive: -36.3%
13,Cc1c(Nc2nc3ccccc3n3c(C)nnc23)cccc1C(=O)O,inactive: -12%
14,CCOc1ccccc1CNC(=O)c1ccc2c(c1)nc1n2CCCCC1,inactive: -0.589%
15,CCN(CC)S(=O)(=O)c1ccc2c(c1)N(CC(=O)N1CCN(c3cccc(OC)c3)CC1)C(=O)CO2,inactive: -8.93%
16,CCc1ccc(NC(=O)c2ccc(F)c(S(=O)(=O)NCc3ccc(Cl)c(Cl)c3)c2)cc1,inactive: 0.895%
17,CN(C)c1ccc(-c2nc(-c3ccco3)no2)cc1[N+](=O)[O-],inactive: -30.6%
18,Cc1ccc(-c2cc(C(=O)N(Cc3ccc(C(C)(C)C)cc3)Cc3ccco3)no2)cc1,inactive: -12.7%
19,COc1ccc(NC(=O)c2ccco2)cc1NC(=O)COc1ccc(Cl)c(C)c1,inactive: -7.64%
20,Cc1ccc(NC(=O)N2CC3CCCN3c3ccccc32)c(C)c1 (stereo unspecified),inactive: -5.96%
21,Fc1ccc(-n2ncc3c(N4CCCCCC4)ncnc32)cc1,inactive: -6.62%

row,Structure (SMILES),activation
1,Cc1ccc(NS(=O)(=O)c2cc3[nH]c(=O)c(=O)[nH]c3cc2C)cc1Cl,inactive: 7.81%
2,CCOc1ccc(C(=O)Nc2c(C(=O)N3CCN(c4ccccc4F)CC3)oc3ccccc23)cc1,inactive: -7.52%
3,CC(C)C(=O)NCC1(N(C)C)CCCCC1,inactive: 3.61%
4,CCc1cccc(C)c1NC(=O)CCn1c(=O)c2cccn2c2ccccc21,inactive: 3.38%
5,Cc1cc(N2CCN(c3cccc(C(F)(F)F)c3)CC2)n2nc(-c3ccccc3)nc2n1,inactive: -10.4%
6,CC(Oc1ccc(Br)cc1)C(=O)Nc1ncn[nH]1 (stereo unspecified),inactive: -13.3%
7,Cc1nc(SC(C)C(=O)Nc2ccccc2Cl)cc(-c2ccccc2)n1 (stereo unspecified),inactive: -8.55%
8,CCn1cc(C(=O)N2CCN(c3cc(C)ccc3C)CC2)c(=O)c2cc(S(=O)(=O)N3CCCCC3)ccc21,inactive: -17.6%
9,COc1ccc(N2CCN(Cc3cccn3-c3nnc(N4CCN(C5CCCCC5)CC4)s3)CC2)cc1,inactive: -15.4%
10,CCOc1ccc(-n2nc(CO)c(C(=O)NCc3cccs3)n2)cc1,inactive: 2.54%
11,Cc1ccc([N+](=O)[O-])cc1S(=O)(=O)N1CCn2cccc2C1c1ccccc1 (stereo unspecified),inactive: -18.5%
12,CCOc1ccccc1CNC(=O)Cn1cc2c(n1)-c1c(oc(C(=O)N3CCCC3)c1C)CC2,inactive: -6.26%
13,Cc1ccc(N2C(=O)N(Cc3cc(=O)n4ccccc4n3)c3ccccc3S2(=O)=O)cc1Cl,inactive: -17.5%
14,Cc1ccc2nc(-c3ccc(Cl)c(NC(=O)COc4ccc(C(C)C)cc4)c3)oc2c1,inactive: -4.89%
15,COc1ccc(NC(=O)CCc2nnc3n(Cc4ccccc4Cl)c(=O)c4ccccc4n23)cc1,inactive: -2.12%
16,CC(N)C(=O)OC(C)(C)Cc1ccc(Cl)cc1 (stereo unspecified),inactive: -3.97%
17,Cc1ccc(C)c(NC(=O)C2CCCN(S(=O)(=O)c3cn(C)cn3)C2)c1 (stereo unspecified),inactive: 2.62%
18,CCOC(=O)CSc1nc2ccccc2c(=O)n1-c1cccc(C)c1,inactive: -3.61%
19,CSc1ccc(CCNC(=O)c2ccc(-c3nc(COc4ccc(C)cc4)c(C)o3)cc2)cc1,inactive: -20.9%
20,O=C(Cn1cc(S(=O)(=O)c2ccccc2)c(=O)c2cc3c(cc21)OCO3)Nc1ccc(Cl)cc1,inactive: -0.142%
21,O=C(CS(=O)(=O)c1cccc2nsnc12)N1CCN(c2cccc(C(F)(F)F)c2)CC1,inactive: -11.1%

row,Structure (SMILES),activation
1,Cc1ccc(S(=O)(=O)N2CCN(Cc3nc4ccc(C)cc4o3)CC2)cc1,inactive: 13.4%
2,COc1ccc(Br)cc1CNC(=O)CCSCc1ccc(C)cc1,inactive: -32%
3,CCNc1cc(N2CCN(C3CCCCC3)CC2)c2noc3c2c1C(=O)c1ccccc1-3,inactive: -12.5%
4,O=C(O)Cc1sc(Nc2ccccc2)nc1-c1ccccc1,inactive: -1.31%
5,COc1ccc(S(=O)(=O)NCCS(=O)(=O)N2CCN(c3ccccc3)CC2)cc1C,inactive: 18.4%
6,O=C(O)Cc1ccc(NC2(c3ccccc3)C(=O)c3ccccc3C2=O)cc1,inactive: -17.4%
7,COc1ccc(C(=O)Nc2ccccc2SCc2cc(=O)c3cccc(C)c3[nH]2)cc1,inactive: 3.12%
8,COC(=O)c1ccccc1NC(=O)C1=C(C)C(=O)OC12CCCCCC2,inactive: 5.41%
9,CCCSc1ncc(Cl)c(C(=O)NCc2ccc(OC)cc2)n1,inactive: -11%
10,CN(C)CCNC(=O)c1ccc2c(c1)N(Cc1ccccc1)C(=O)c1ccccc1S2(=O)=O,inactive: -7.27%
11,COc1ccc(-c2cn3nc(N4CCCC(C(=O)Nc5cccc(Cl)c5C)C4)sc3n2)cc1 (stereo unspecified),inactive: 2.24%
12,CCOCCn1ccc2c(OCC(=O)NCc3ccc(C)cc3)cccc2c1=O,inactive: -6.75%
13,COc1cccc(-n2cc(C(=O)OCc3ccc(F)c(F)c3)c3ccccc3c2=O)c1,inactive: -5.43%
14,O=C(CN1C(=O)COc2ccc(S(=O)(=O)N3CCCC3)cc21)N1CCN(c2ccc(Cl)cc2)CC1,inactive: 0.775%
15,Cc1ccc2c(c1)N(S(=O)(=O)c1cc(-c3onc(C)c3C)ccc1C)CCO2,inactive: -13.4%
16,COc1ccccc1CNC(=O)CCn1c(=O)c2ccccc2n(CC(=O)Nc2ccc(Br)cc2F)c1=O,inactive: -2.06%
17,O=C(Cn1cc(C(=O)c2ccncc2)c(=O)c2cc(F)ccc21)Nc1ccc(Cl)cc1,inactive: -15.4%
18,O=C1c2[nH]nc(-c3ccccc3O)c2C(c2cccc(O)c2)N1Cc1ccncc1 (stereo unspecified),inactive: -13.3%
19,COCCCNC(=O)N1[C@H](c2cccs2)[C@@H](C)C(=O)[C@@H](C)[C@@H]1c1cccs1,inactive: -4.86%
